Laboratory results as given in paper PMC4336329 (PLoS ONE, 2015).
Among all 310,000 compounds or so, about 14,000 (4.5%) showed an effect of 50% or more. Effects have a minus sign here. The list shows a part of the results.

Target: human ether-à-go-go-related gene (hERG) potassium channel (human, UniProt Q12809)
Assay: primary screen, population patch clamp on CHO cells stably expressing hERG
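Further: peak tail current of the secondary pulse compared with the same well before compound.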

Sequence of human ether-à-go-go-related gene (hERG) potassium channel (Q12809 whole entry, looked up): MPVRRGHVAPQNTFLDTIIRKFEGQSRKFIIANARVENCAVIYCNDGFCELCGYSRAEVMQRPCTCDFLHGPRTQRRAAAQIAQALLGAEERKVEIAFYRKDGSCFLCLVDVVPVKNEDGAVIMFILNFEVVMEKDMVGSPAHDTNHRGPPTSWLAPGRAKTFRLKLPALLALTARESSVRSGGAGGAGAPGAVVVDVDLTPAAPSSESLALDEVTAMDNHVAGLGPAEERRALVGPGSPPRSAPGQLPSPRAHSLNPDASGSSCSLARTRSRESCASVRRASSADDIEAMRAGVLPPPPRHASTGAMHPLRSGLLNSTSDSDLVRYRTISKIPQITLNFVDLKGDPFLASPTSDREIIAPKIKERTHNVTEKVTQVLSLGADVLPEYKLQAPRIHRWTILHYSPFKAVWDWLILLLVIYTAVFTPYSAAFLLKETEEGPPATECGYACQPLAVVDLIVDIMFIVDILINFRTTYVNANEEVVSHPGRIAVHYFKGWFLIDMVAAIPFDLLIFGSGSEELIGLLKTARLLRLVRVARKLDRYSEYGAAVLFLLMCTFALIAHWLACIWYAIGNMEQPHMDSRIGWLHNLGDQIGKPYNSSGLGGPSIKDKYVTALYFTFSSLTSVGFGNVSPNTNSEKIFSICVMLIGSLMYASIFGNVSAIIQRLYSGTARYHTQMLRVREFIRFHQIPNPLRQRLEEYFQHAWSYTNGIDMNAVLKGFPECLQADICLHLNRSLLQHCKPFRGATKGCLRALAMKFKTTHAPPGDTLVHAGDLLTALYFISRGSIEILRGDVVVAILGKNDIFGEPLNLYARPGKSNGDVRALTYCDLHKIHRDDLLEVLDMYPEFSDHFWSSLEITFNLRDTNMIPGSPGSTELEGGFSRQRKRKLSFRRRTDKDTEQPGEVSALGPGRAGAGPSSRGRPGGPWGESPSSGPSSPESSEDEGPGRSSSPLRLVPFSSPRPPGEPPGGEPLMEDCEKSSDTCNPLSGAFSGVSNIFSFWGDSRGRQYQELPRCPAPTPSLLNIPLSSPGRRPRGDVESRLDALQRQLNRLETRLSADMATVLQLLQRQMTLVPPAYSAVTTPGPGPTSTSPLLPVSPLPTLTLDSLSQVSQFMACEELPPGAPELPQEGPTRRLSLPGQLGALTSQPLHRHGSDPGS

Structure (SMILES)	hERG current change (%, negative = inhibition) at 10uM [%]
CCCn1c(SCC(=O)Nc2cc(S(=O)(=O)N(C)C)ccc2OC)n[nH]c1=O	17.6
CC(=O)n1cc([C@H]2C=C(C(=O)Nc3ccccc3)O[C@@H](OCc3ccc(CO)cc3)C2)c2ccccc21	-2.85
CC1(C)CC(NCc2ccc3c(c2)OCO3)CCO1 (stereo not shown)	9.64
CCOC(=O)c1[nH]c(C)c(CN(CCc2ccccc2)C(=O)CCC(=O)O)c1C	11.7
Cc1cc(/C=C(\C#N)C(=O)NC2CC2)c(C)[nH]1	-13
CCN(CC(=O)NCc1cccs1)C(=O)CCOc1ccccc1C	-19.8
C=C(C)c1cccc(C(C)(C)NC(=O)NCc2cccnc2)c1	1.9
CC(=O)OC(COc1ccc(F)cc1)Cn1cnc2ccccc21 (stereo not shown)	-2.56
COC(=O)C1=C(c2ccc(F)cc2OCc2ccccc2)C[C@@H]2CC[C@H]1N2C(=O)NCc1ccccc1Br	5.03
COc1ccc(/C=C/C(=O)Oc2ccc(/C=N\NC(=O)c3ccc(F)cc3)cc2)cc1	-2.56
C=CCOC(=O)C1=C[C@@H](c2coc3ccccc3c2=O)C[C@@H](OCCCCO)O1	-22.1
CCCC(=O)NC(Nc1ccc(S(=O)(=O)Nc2ncccn2)cc1)(C(=O)OCC)C(F)(F)F (stereo not shown)	26.6
CCOC(=O)C1CCN(CCC(=O)Nc2cccc(Cl)c2)CC1	-67.1
O=C(C1CC1)N1CCC(c2nc(-c3ccc(S(=O)(=O)NCC4CCCO4)cc3)no2)CC1 (stereo not shown)	0.288
Cc1csc(NC(=O)C2CCC(C)(C(=O)O)C2(C)C)n1 (stereo not shown)	9.47
Cc1nc(SCC(=O)N2CC(=O)Nc3ccccc32)c2c(C)c(C)sc2n1	-5.65
O=C(CCN1C(=O)C2CC=CCC2C1=O)Nc1cc(C(F)(F)F)ccc1N1CCCC1 (stereo not shown)	-6.9
O=c1c2ccccc2ncn1-c1cccc([N+](=O)[O-])c1	7.72
O=C(CSc1ccccn1)Nc1ccc2c(c1)OCCO2	8.07
CCN(CC)CCCNC(=O)c1sc2nc(-c3ccc(F)cc3)cn2c1C	-71.1

Structure (SMILES)	hERG current change (%, negative = inhibition) at 10uM [%]
N#CCCN(Cc1cccnc1)C(=O)c1ccc(S(=O)(=O)N2CCOCC2)cc1	-4.39
Cc1ccc(CNC(=O)Cn2cccc2C(=O)c2ccccc2C)cc1	-7.1
O=C(NC1CCCCCC1)C(=S)N1CCOCC1	6.85
N/C(CS(=O)(=O)c1ccc(F)cc1)=N\O	11.8
Cn1nc(C(F)(F)F)c(/C=N/OC(=O)c2ccccc2)c1SCc1ccc(Cl)cc1	6.34
Cc1ccc2c(cnn2C(=O)CCCC(=O)NCc2ccc(F)cc2)c1	-9.47
O=C(c1snnc1-c1ccccc1)N1CCOCC1	4.29
Cc1ccc2c(C)nc(Nc3nc(CSc4nnc(C)s4)cc(=O)[nH]3)nc2c1	-1.01
CCOC(=O)Cc1csc(N)n1	9.91
O=C(CCCN1C(=O)c2ccccc2C1=O)NCCCN1CCOCC1	20.3
O=C(NCCOc1ccccc1)c1ccccc1[N+](=O)[O-]	41.5
Cc1ccc(-c2nn(-c3cccc(F)c3)cc2CNCc2cccnc2)o1	-51.6
COc1ccc(NC(=O)C2C3CCC(O3)C2C(=O)O)cc1OC (stereo not shown)	17.9
CC(Oc1ccc(Cl)cc1Cl)C(=O)Nc1cccc(O)c1 (stereo not shown)	-10.2
c1ccc2c(c1)nc(Nc1ccc3c(c1)OCO3)c1nnnn12	8.5
Cc1ccc(-c2c(C#N)c(N)nc3c2CCCCC3)o1	-5.84
COc1ccc2c(c1OC)C(=O)OC2Nc1nc(-c2ccccc2)cs1 (stereo not shown)	8.12
CCn1c(SCc2nc(CC(=O)Nc3ccccc3OC)no2)nnc1-c1cccs1	-49.8
Cc1ccc(S(=O)(=O)/N=C(\N)c2ccc(Cl)cc2)cc1	-2.48
O=C1CCCc2c1cnc1ncnn21	6.13

Structure (SMILES)	hERG current change (%, negative = inhibition) at 10uM [%]
O=C(NCCc1ccc(Cl)cc1)C1CCN(S(=O)(=O)N2CCC3(CC2)OCCO3)CC1	-8.62
CCN1C(=O)c2cccc3c(S(=O)(=O)Nc4ccccn4)ccc1c23	-3.39
CC(=O)CSc1ncnc2sc3c(c12)CCC(C)C3 (stereo not shown)	4.82
Cc1cccc(C)c1OC(=O)C(c1ccccc1)c1ccccc1	6.14
C=C(C)COc1ccc(-c2[nH]ncc2Oc2ccc(OC)cc2)c(O)c1	-14.9
CN1C(=O)C(Cc2cnc[nH]2)NC1=S (stereo not shown)	30.8
CCOC(=O)C(=CNc1ccc(C)cc1C)C(=O)OCC	6.25
O=C(NC1CCCCC1)C(c1ccccc1)N1CCOCC1 (stereo not shown)	9.63
CCCC(=O)N(c1ccc(F)cc1)C1C=CS(=O)(=O)C1 (stereo not shown)	11.7
CN/C=C(/Cl)P(=O)(OC(C)C)OC(C)C	11.1
CN1CCCN(CC(O)COCc2cccs2)CC1 (stereo not shown)	-2.94
C=CCOc1ccc(/C=N/NC(=O)C(=O)N2CCCCCC2)cc1OC	16.5
Cc1cccc(OCC(=O)NN2C(=O)C3C4C=CC(O4)C3C2=O)c1 (stereo not shown)	13.9
c1ccc2oc(-c3[nH]ncc3CN3CCC(N4CCSCC4)CC3)cc2c1	-61.9
COc1ccc(CCN2CC(C(=O)NCCc3cnn(C)c3)CCC2=O)cc1 (stereo not shown)	17.9
Cc1ccc(C)c(S(=O)(=O)NNC(=O)c2sc(NS(=O)(=O)c3ccccc3)nc2C)c1	14.2
O=[N+]([O-])c1ccc(N/N=C2\CC3CC=CC23)cc1 (stereo not shown)	-25.4
O=C(O)CCC(=O)Nc1nnc(C(F)(F)F)s1	-2.04
